Measured values: paper PMC4336329 (PLoS ONE, 2015)
Among all 310,000 compounds or so, about 2,200 (0.71%) showed an effect of 50% or more. Effects have a minus sign here. The list shows a part of the results.

The compounds below were run against human ether-à-go-go-related gene (hERG) potassium channel (human, UniProt Q12809) (assay: primary screen, population patch clamp on CHO cells stably expressing hERG).
Chain of human ether-à-go-go-related gene (hERG) potassium channel (Q12809 whole entry, looked up): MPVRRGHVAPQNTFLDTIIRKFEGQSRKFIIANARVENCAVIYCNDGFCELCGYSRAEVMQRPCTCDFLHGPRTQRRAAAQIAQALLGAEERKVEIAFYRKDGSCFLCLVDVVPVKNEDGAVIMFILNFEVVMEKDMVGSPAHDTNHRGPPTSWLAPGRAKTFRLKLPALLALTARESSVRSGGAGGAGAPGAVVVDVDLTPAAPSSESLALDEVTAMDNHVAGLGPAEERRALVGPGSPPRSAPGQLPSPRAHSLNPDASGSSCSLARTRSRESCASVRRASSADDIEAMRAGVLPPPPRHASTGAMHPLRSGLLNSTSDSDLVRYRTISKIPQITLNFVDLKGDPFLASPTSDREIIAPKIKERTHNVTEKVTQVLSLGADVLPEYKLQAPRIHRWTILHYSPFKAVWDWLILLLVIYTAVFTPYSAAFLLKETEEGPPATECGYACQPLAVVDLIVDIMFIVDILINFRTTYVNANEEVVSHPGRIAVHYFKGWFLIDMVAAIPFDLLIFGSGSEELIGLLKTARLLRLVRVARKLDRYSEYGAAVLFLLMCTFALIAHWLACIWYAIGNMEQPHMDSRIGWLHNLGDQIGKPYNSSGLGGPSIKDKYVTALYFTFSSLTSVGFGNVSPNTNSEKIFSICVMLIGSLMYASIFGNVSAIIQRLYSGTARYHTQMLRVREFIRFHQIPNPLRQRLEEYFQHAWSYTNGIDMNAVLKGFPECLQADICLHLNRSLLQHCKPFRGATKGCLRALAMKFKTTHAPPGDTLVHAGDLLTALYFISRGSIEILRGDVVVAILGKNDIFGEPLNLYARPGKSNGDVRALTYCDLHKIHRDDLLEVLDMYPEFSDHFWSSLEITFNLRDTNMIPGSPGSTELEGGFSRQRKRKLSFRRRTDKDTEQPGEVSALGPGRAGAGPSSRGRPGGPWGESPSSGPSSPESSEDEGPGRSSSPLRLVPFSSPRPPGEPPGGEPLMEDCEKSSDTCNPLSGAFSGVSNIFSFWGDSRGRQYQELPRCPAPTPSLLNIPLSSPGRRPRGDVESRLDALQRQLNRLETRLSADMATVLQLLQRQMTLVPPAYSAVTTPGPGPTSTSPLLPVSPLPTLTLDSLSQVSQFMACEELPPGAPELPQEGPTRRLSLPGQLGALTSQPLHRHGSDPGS

SMILES | hERG current change (%, negative = inhibition) at 1uM
O=C(c1cc(-c2cccc(Cl)c2)on1)N1CCOCC1 | 13.4%
O=C(CCCN1C(=O)/C(=C/c2ccccc2Cl)SC1=S)NNC(=O)c1cccnc1 | 11.9%
O=C(Nc1cc(Cl)ccc1O)C1CC(c2ccccc2Cl)=NO1 (centres unmarked) | 17.3%
O=C(CC1Nc2ccccc2NC1=O)Nc1ccc2c(c1)OCO2 (centres unmarked) | 14.5%
CCOC(=O)c1cccc(NC(=O)c2cccnc2)c1 | -4.05%
Cl.NC(CCC(=O)O)C(=O)O (centres unmarked) | 13.7%
CC1CCc2c(C(=O)NCCN3CCOCC3)csc2C1 (centres unmarked) | 9.44%
CC(C)CC(=O)Nc1nnc(-c2ccco2)s1 | -0.073%
COc1ccc(CNC(=O)c2ccc(CN3CCOCC3)cc2)cc1 | 9.3%
COc1ccc(Br)cc1CNC(=O)C1CCCN(c2nc3ccccc3o2)C1 (centres unmarked) | 2.43%
CCCc1ccc(-c2cc(C(=O)N/N=C/c3ccc([N+](=O)[O-])o3)c3ccccc3n2)cc1 | 2.64%
O=C(NCC1CCN(S(=O)(=O)c2ccccc2)CC1)Nc1ccccc1 | 16.7%
COc1ccc(-n2nc(C(=O)NCC(=O)NCC3COc4ccccc4O3)c3ccccc3c2=O)c(OC)c1 (centres unmarked) | 0.112%
Cc1cc2cc(CNC(=O)c3ccc(Br)o3)ccc2[nH]1 | -6.57%
COCCSc1nnc(NC(=O)C2CCCO2)s1 (centres unmarked) | 10.1%
Cc1[nH][nH]c(=O)c1[C@@H](c1ccccc1[N+](=O)[O-])C(C#N)C#N | 13%
COc1ccc(NC(=O)COC(=O)c2c3c(nc4ccccc24)CCCC3)cc1Cl | 12.9%
Cn1c(SCC(=O)NCc2cccs2)nnc1-c1ccncc1 | 12.8%
O=C(CCCn1c(=O)oc2ccccc21)NC1CCCCCC1 | 12.2%
CN(C)CCN(C(=O)c1ccc2ccccc2c1)c1nc2cc3c(cc2s1)OCCO3.Cl | 10.2%
O=C(NCc1ccc(F)cc1)C1CCCN(S(=O)(=O)c2cccc3nsnc23)C1 (centres unmarked) | 16.3%
CC(=O)NCCCc1nc2ccccc2n1Cc1ccccc1C | 5.62%

SMILES | hERG current change (%, negative = inhibition) at 1uM
Cc1ccc(C(=O)NC2CCN(S(=O)(=O)c3ccccc3F)CC2)cc1 | 15.1%
CC(C)Sc1nc(N)c2c3c(sc2n1)CN(C)CC3 | 2.25%
CCN(C(=O)CCN1C(=O)S/C(=C\c2ccccc2)C1=O)C1CCS(=O)(=O)C1 (centres unmarked) | 11.6%
CC(C)[C@H](NC(=O)C1CC(=O)N(c2ccc3c(c2)OCCO3)C1)C(=O)NC1CCCC1 (some centres unmarked) | 15.4%
Cc1ccc(S(=O)(=O)N(CCC#N)CCN2CCCC2)cc1 | 2.4%
CC(=O)Nc1ccccc1C(=O)OCC(=O)c1ccc2ccccc2c1 | 6.13%
O=C(c1ccccc1)N1CCN(Cc2ccc3c(c2)OCO3)CC1 | 19.1%
Cc1ccc(COn2c(-c3ccc(Cl)cc3)nc3ccc([N+](=O)[O-])cc32)cc1 | 11.6%
CN(C)c1ccc(C(C(=O)NCC2CCCO2)N(Cc2ccco2)C(=O)c2snc(C(N)=O)c2N)cc1 (centres unmarked) | 13.8%
O=C(O)CCC(=O)NCc1ccc(C(=O)O)cc1 | 1.45%
CCNc1ccc(C(=O)OCC)cc1NC(=O)c1cccc(S(=O)(=O)N(C)c2ccccc2)c1 | 8.79%
Cc1cc(C)n(CC(O)COc2cccc(OCC(O)Cn3nc(C)cc3C)c2)n1 (centres unmarked) | 13.4%
CC(C)c1nc(SCC(=O)N2CC(=O)Nc3ccccc32)c2ccccc2n1 | 11%
N/C(=N\OC(=O)c1cccs1)c1ccc(Cl)cc1 | 11.2%
Nc1nnc(SCC(=O)Nc2ccc3nc(SCC(=O)Nc4ccccc4)sc3c2)s1 | 2.26%
COc1ccc(CNC(=O)COc2ccc(S(=O)(=O)N3CCCCC3)cc2)cc1 | 12.9%
CCCCN(C)CCNC(=O)CCNC(=O)Cn1ccc2ccccc2c1=O | 12.5%
CC(C)C(NC(=O)c1ccc(F)cc1)C(=O)N1CCN(C(=O)c2ccco2)CC1 (centres unmarked) | 0.644%
CN(C)c1cccc(C(=O)N2CCCC(C(=O)c3cc(F)ccc3F)C2)c1 (centres unmarked) | 7.89%
COc1cc(/C=C2\SC(N3CCC(C)CC3)=NC2=O)ccc1O | 4%
CCOc1ccc(CCNC(=O)COC(=O)c2cc(S(=O)(=O)N3CCOCC3)ccc2F)cc1OCC | -4.26%
C=CCNCc1cc(=O)n2c(-c3ccccc3)csc2n1.O=C(O)C(=O)O | 13.2%
